# According to PubChem BioAssay AID1745853 (National Center for Advancing Translational Sciences (NCATS), 2022):
# This is one part of the list. Further columns of the screen follow, without active or inactive calls.
# Key:
# Experiment in all cases: Primary Screen for Target Class Profiling of Small Molecule Inhibitors of Methyltransferases
# [1] = target: Glycine N-methyltransferase (Homo sapiens) (UniProt Q14749); settings: purified enzyme, MTase-Glo SAH luminescence; measured here: GNMT inhibition; at 40 µM; stronger effect = lower value
# Method in brief: (§1)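 Each enzyme was reacted with SAM and its substrate, with compounds tested once at 40 uM; SAH formed was read by MTase-Glo luminescence.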
# [2] = target: Guanidinoacetate N-methyltransferase (Homo sapiens) (UniProt Q14353); settings: purified enzyme, MTase-Glo SAH luminescence; measured here: GAMT inhibition; at 40 µM; stronger effect = lower value
# Method in brief: as §1
# [3] = target: Histamine N-methyltransferase (Homo sapiens) (UniProt P50135); settings: purified enzyme, MTase-Glo SAH luminescence; measured here: HNMT inhibition; at 40 µM; stronger effect = lower value
# Method in brief: as §1
# [4] = target: Nicotinamide N-methyltransferase (Homo sapiens) (UniProt P40261); settings: purified enzyme, MTase-Glo SAH luminescence; measured here: NNMT inhibition; at 40 µM; stronger effect = lower value
# Method in brief: as §1
# [5] = target: Phenylethanolamine N-methyltransferase (Homo sapiens) (UniProt P11086); settings: purified enzyme, MTase-Glo SAH luminescence; measured here: PNMT inhibition; at 40 µM; stronger effect = lower value
# Method in brief: as §1
# % is set by controls: 0 for no effect and ±100 for the full control effect.
SMILES,"activity change, negative = inhibition [1] [%]","activity change, negative = inhibition [2] [%]","activity change, negative = inhibition [3] [%]","activity change, negative = inhibition [4] [%]","activity change, negative = inhibition [5] [%]"
CN1C(=O)c2cc(C(=O)NCc3ccc(Cl)cc3)nn2CC1(C)C(=O)NC1CCCC1 (stereo not given),6.22,0.568,2.71,8.09,3.47
Brc1cccc(-c2nnn3c2nc(NCc2ccc4c(c2)OCO4)c2ccccc23)c1,2.18,0,5.63,-5.5,-2.38
CCc1cc2c(cc3n2CC(C)(C(=O)NC2CCCCC2)N(c2cc(Cl)ccc2C)C3=O)s1 (stereo not given),-1.62,1.65,-1.7,1.8,-2.73
O=C(NCC1(COc2ccc(C(F)(F)F)cn2)C[C@@H](O)[C@@H](O)C1)c1cnccn1 (stereo not given in full),-1.64,-0.265,0.382,-1.86,7.79
CC(=O)Nc1ccc(N2C(=O)c3ccc(-c4ccco4)n3CC2(C)C(=O)NCc2ccc(Cl)cc2)cc1 (stereo not given),-9.71,0,5.71,1.19,-0.309
Cc1ccc2c(c1)c(=O)[nH]c1c(C(=O)NCc3ccc4c(c3)OCO4)sc(=S)n12,-35.9,0,6.24,-55.1,-19.3
C=CCn1c(=O)c2ccc(C(=O)NC(C)CC)cc2n2c(=O)n(CC(=O)Nc3ccc(C)cc3)nc12 (stereo not given),1.3,0.522,2.2,-2.7,-1.29
Nc1nc2c(ncn2[C@@H]2O[C@H](CO)[C@@H](O)[C@H]2O)c(=O)[nH]1,4.41,5.21,6.48,-7.38,1.37
CCCn1c(=O)c2ccc(C(=O)NC(C)C)cc2n2c(=O)n(CC(=O)NC3CCCCC3)nc12,7.68,1.3,6.37,8.26,5.44
CC1CC(=O)C2C(O)(C1)CC(O)C13OC1c1c(O)cccc1C(=O)C23O (stereo not given),0,1.47,3.17,-8.6,4.79
COc1ccc(-c2cc3n(n2)CC(C)(C(=O)NCc2ccccc2)N(Cc2ccco2)C3=O)cc1 (stereo not given),4.58,0,11.7,7.57,1.42
O=C1c2ccccc2C(=O)c2c1cccc2S(=O)(=O)Nc1ccc(Cl)cc1,-26.6,-7.7,-10.7,-15.3,-66.9
CC[C@@H](C)[C@H](N)C(=O)N1Cc2ccccc2C1,-1.03,-11,-6.84,-20.6,-13.3
CCN(CC)c1ccc(N2C(=O)c3ccc(-c4ccco4)n3CC2(C)C(=O)NCc2ccccc2)c(C)c1 (stereo not given),-11.9,-2.49,-2.08,-2.74,-5.76
CCC(C)C1NC(=O)C2C(C)CCN2C(=O)C(CC(O)CO)OC(=O)CCNC(=O)C(C)N(C)C(=O)C(C(C)C)N(C)C1=O (stereo not given),4.78,5.61,7.46,-8.72,-1.92
O=C(CCC1CCN(S(=O)(=O)c2ccccc2)CC1)NCCCN1CCCC1=O,-6.98,-1.51,-8.17,-8.71,-8.27
COc1ccc(CC(=O)Nc2ccc3n(c2=O)C[C@H]2C[C@@H]3CN(C(=O)c3ccc(-c4ccccc4)cc3)C2)cc1,-9.45,-5.7,-8.53,-21.8,-6.56
O=C1NCCCCCCN(C(=O)CCc2ccccc2)[C@H]2CCCC[C@@H]12,-1.33,-1.9,0.868,-1.57,-3.58
CC(C)OCCCNC(=O)CCc1nnc2ccc(NCc3ccc4c(c3)OCO4)nn12,-5.73,4.89,-3.48,-1.56,-0.59
